{"source": "PubChem BioAssay AID686970", "about": "(National Center for Advancing Translational Sciences (NCATS), 2013)", "note": "Hit rate of the full screen: of about 360,000 compounds, about 6,000 (1.7%) were called active. The shares of active, inactive and inconclusive entries below differ from those in the screen. Calls follow the shape of the dose curve; as a rule, active = well fitted cell-killing curve with a large enough effect; inconclusive = small, poorly fitted or top-dose-only effect, or effect the other way; inactive = flat fitted curve, though single readings scatter. No potency is given beside an inconclusive call; the fits are too rough. Potency is read from the fitted curve at half-maximal effect; tags tell the direction and shape of the fitted curve."}
{"assay": "qHTS for induction of synthetic lethality in tumor cells producing 2HG: qHTS for the HT-1080-NT fibrosarcoma cell line;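 also: NT is the 2HG producing partner of a matched IDH1 knockdown line; nearly all actives have a fitted effect of over 55% in size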;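 as to activity, negative = less viability: 0% = DMSO-treated cells and -100% = media-only wells without cells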", "details": "HT-1080-NT fibrosarcoma viability, CellTiter-Glo ATP luminescence, 48 h; activity, negative = less viability: at 46.1 µM (top of the series) unless noted", "outline": "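A 48-hour cytotoxicity screen used HT-1080-NT cells plated 2 hours before compound delivery. ATP-based CellTiter-Glo luminescence measured viability, normalized to DMSO and no-cell controls.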"}
{"smiles": "Cc1ccsc1C(=O)N1CCC1(C)C(=O)NS(=O)(=O)c1ccccc1C(F)(F)F", "note": "(stereo unspecified)", "activity, negative = less viability": "inconclusive: 16.7%"}
{"smiles": "O=C1ON=C(c2cccc([N+](=O)[O-])c2)/C1=C/c1ccc(O)cc1", "Potency": "inconclusive [cytotoxic, partial curve]"}
{"smiles": "Cc1ccn(-c2ccc(NC(=O)c3cccs3)cc2)n1", "Potency": "inconclusive [cytotoxic, partial curve, poor fit]"}
{"smiles": "CCOc1ccc(N2CC(NS(=O)(=O)c3cccnc3)CC2=O)cc1", "note": "(stereo unspecified)", "Potency": "inactive"}
{"smiles": "Cc1noc(C)c1COc1ccccc1C(=O)N1CCN(c2cccc(C(F)(F)F)c2)CC1", "Potency": "inconclusive [cytotoxic, partial curve]"}
{"smiles": "COC(=O)[C@@]1(Cc2ccc(F)cc2)[C@H]2c3cc(C(=O)N4CCCC4)n(Cc4ccc(OC(F)(F)F)cc4)c3C[C@H]2CN1C(=O)c1ccccc1", "Potency": "inconclusive [cytotoxic, single point]"}
{"smiles": "CCCCNC(=O)c1ccc2nc(CC)c(N(C)Cc3cccs3)n2c1", "Potency": "inactive"}
{"smiles": "COc1ccc(CCNC(=O)COc2ccc(S(=O)(=O)NC(C)C)cc2Cl)cc1OC", "Potency": "inconclusive [cytotoxic, single point]"}
{"smiles": "O=C(C1=C[C@@H](C2CCCCC2)C[C@@H](OCc2ccc(CO)cc2)O1)N1CCN(Cc2ccccc2)CC1", "Potency": "inconclusive [cytotoxic, single point]"}
{"smiles": "Cc1ccc(OCCCCN(C)Cc2ccccc2)c(Br)c1", "Potency": "inconclusive [cytotoxic, partial curve]"}
{"smiles": "Fc1ccccc1NC(=S)NN(Cc1ccccc1)c1ccccc1", "Potency": "active: 11.2 µM"}
{"smiles": "Cc1ccc(-c2csc(NC(=O)C[n+]3cc(-c4ccc(C)cc4)n4c3CCC4)n2)cc1", "Potency": "inconclusive [cytotoxic, single point]"}
{"smiles": "CCOc1cccc(C(=O)Nc2ccccc2C(=O)N2CCN(C)CC2)c1", "Potency": "inactive"}
{"smiles": "CCOC(=O)c1ccc(NC(=S)NCc2cccnc2)cc1", "Potency": "inconclusive [cytotoxic, single point]"}
{"smiles": "CCCc1nc2c(C)cc(-c3nc4ccccc4n3C)cc2n1Cc1ccc(-c2ccccc2C(=O)O)cc1", "Potency": "inconclusive [cytotoxic, partial curve]"}
{"smiles": "CCCCCCCCN1C(=O)[C@H](CC(=O)NCc2ccccc2)C[C@@]2(C(=O)OC)CCCCC=C12", "Potency": "inconclusive [cytotoxic, single point]"}
{"smiles": "COc1ccc(NC(=O)C2(C)Cc3c(-c4ccc5c(c4)OCO5)ccnc3O2)cn1", "note": "(stereo unspecified)", "Potency": "inconclusive [cytotoxic, partial curve]"}
{"smiles": "O=S(=O)(c1ccc(-c2csc(Nc3ccc(Br)cc3)n2)cc1)N1CCCC1", "Potency": "inconclusive [cytotoxic, partial curve]"}
{"smiles": "CCCCCCCCOC(=O)C1=C(C)Nc2nnnn2C1c1cccs1", "note": "(stereo unspecified)", "Potency": "inconclusive [cytotoxic, single point]"}
{"smiles": "NC1=C(Cl)C(=O)c2ccccc2C1=O", "Potency": "inconclusive [cytotoxic, single point]"}
{"smiles": "CCOc1ccc2nc(C)cc(Nc3ccc4c(c3)OCCO4)c2c1", "Potency": "inconclusive [cytotoxic, single point]"}
{"smiles": "CCCS(=O)(=O)NC(=O)C1(C)CCN(C(=O)/C=C/c2ccccc2)C1", "note": "(stereo unspecified)", "Potency": "inconclusive [rising, partial curve]"}
{"smiles": "N/C(=N\\c1nc2ccccc2o1)NC(=O)c1cccc(Br)c1", "Potency": "inconclusive [rising, single point]"}
{"smiles": "COc1cc(NC(=O)CSCC(=O)Nc2cccc(C(F)(F)F)c2)c(Cl)cc1Cl", "Potency": "inconclusive [cytotoxic, single point]"}
{"smiles": "CCc1nnc(N/N=C/c2c(F)cccc2Cl)n1N", "Potency": "inconclusive [cytotoxic, single point]"}
{"smiles": "O=C(Nc1ccccc1N1CCCCC1)c1ccc(-c2ccc(Cl)cc2)o1", "Potency": "active: 2.06 µM"}
{"smiles": "CCCCCCCCN1C(=O)[C@H](CC(=O)NCc2ccc(OC)c(OC)c2)C[C@@]2(C(=O)OCC)CCCC=C12", "Potency": "inconclusive [cytotoxic, single point]"}
{"smiles": "O=C(Nc1ccc2nc3ccccc3nc2c1)c1ccccc1", "Potency": "inconclusive [cytotoxic, single point]"}
{"smiles": "Cc1ccccc1OCC(=O)Nc1ccc2c(c1)OCCO2", "Potency": "inactive"}
{"smiles": "OC(c1ccc(F)cc1)c1nc(-c2cc3ccccc3o2)cs1", "note": "(stereo unspecified)", "Potency": "inconclusive [cytotoxic, single point]"}
{"smiles": "Cc1ccc([C@H]2C[C@@H](O)[C@H](n3cc(-c4ccc(F)cc4)nn3)CN2C(=O)c2cccs2)cc1", "Potency": "inconclusive [cytotoxic, partial curve]"}
{"smiles": "Cc1c(C(=O)Nc2ccc(Cl)cc2)c2ccccn2c1CCc1ccncc1", "Potency": "inactive"}
{"smiles": "Cc1c(C(=O)OCC2CCCO2)[nH]c2c1C(=O)CC(c1ccco1)C2", "note": "(stereo unspecified)", "Potency": "inconclusive [cytotoxic, full curve]"}
{"smiles": "CCS(=O)(=O)c1ccc(OC)c(N=Nc2ccc(O)c3ncccc23)c1", "Potency": "inconclusive [cytotoxic, partial curve]"}
{"smiles": "COc1ccc(/C=C/C(=O)C2CC2)cc1COc1cccc(C)c1C", "Potency": "inconclusive [cytotoxic, single point]"}
{"smiles": "CCN1CCCC1Cn1cnc2c([nH]c3cccc(Cl)c32)c1=O", "note": "(stereo unspecified)", "activity, negative = less viability": "inconclusive: -30.4% [cytotoxic]"}
{"smiles": "CCOC(=O)c1c(C)oc2c1c(C(c1ccncc1)N1CCOCC1)c(O)c1ccccc12", "note": "(stereo unspecified)", "Potency": "inconclusive [cytotoxic, single point]"}
{"smiles": "CCn1c(=NC(=O)C2COc3ccccc3O2)sc2c(OC)ccc(OC)c21", "note": "(stereo unspecified)", "Potency": "inconclusive [rising, single point]"}
{"smiles": "Cc1ccc2[nH]c(-c3ccccc3)cc(=O)c2c1", "Potency": "active: 0.731 µM"}
{"smiles": "CC(C)CCCCCCCCCCCCC(=O)NCC(=O)NC1C(C)OC(Nc2ncnc3nc[nH]c23)C(O)C1O", "note": "(stereo unspecified)", "Potency": "active: 1.84 µM"}
{"smiles": "CCC(=O)N1CCN(c2ccccc2NC(=O)c2ccc([N+](=O)[O-])o2)CC1", "Potency": "inconclusive [cytotoxic, single point]"}
